These results are taken from a collection of fitness landscapes (doi:10.1126/science.1257360).

The other results are listed elsewhere or left out.

B1: PhoQ; a variant is named by its letters at X, in order, P23837 (parent)
chain: MKKLLRLFFPLSLRVRFLLATAAVVLVLSLAYGMVALIGYSVSFDKTTFRLLRGESNLFYTLAKWENNKLHVELPENIDKQSPTMTLIYDENGQLLWAQRDVPWLMKMIQPDWLKSNGFHEIEADVNDTSLLLSGDHSIQQQLQEVREDDDDAEMTHSVAVNVYPATSRMPKLTIVVVDTIPVELKSSYMVWSWFIYVLSANLLLVIPLLWVAAWWSLRPIEALAKEVRELEEHNRELLNPATTRELTSLVRNLNRLLKSERERYDKYRTTLTDLTHSLKTPLXXLQXXLRSLRSEKMSVSDAEPVMLEQISRISQQIGYYLHRASMRGGTLLSRELHPVAPLLDNLTSALNKVYQRKGVNISLDISPEISFVGEQNDFVEVMGNVLDNACKYCLEFVEISARQTDEHLYIVVEDDGPGIPLSKREVIFDRGQRVDTLRPGQGVGLAVAREITEQYEGKIVAGESMLGGARMEVIFGRQHSAPKDE

The assay covers variants of B1. Nature of the assay: enrichment ratio after two sorts for PhoP signalling (ratio (wild type AVST 3.29)); higher = more functional. The following applies: with PhoP (E. coli).
With PHYT, the enrichment ratio was at most 0.25.
Consider MMAY, for which the enrichment ratio is 0.946.
With IDNY the figure was at most 0.25; with QVFG, at most 0.25.
With MNDG, the enrichment ratio is at most 0.25.
Consider MQPT, for which the enrichment ratio was at most 0.25.
For VNQV, the enrichment ratio is at most 0.25.
With EGRC, the enrichment ratio was at most 0.25.
With TGRI the figure was at most 0.25.
As for NHYF, the enrichment ratio was at most 0.25.
Take KACL: the enrichment ratio was at most 0.25.
On to QALW, for which the enrichment ratio is at most 0.25.
The result for GCLV reads 14.5; that for WLWY, at most 0.25; that for WMAF, at most 0.25.
With LDDV the figure was at most 0.25; with KYMA, at most 0.25.
With TKCK the figure was at most 0.25; with QPYE, at most 0.25; with RTVT, at most 0.25.
Consider NEAR, for which the enrichment ratio was at most 0.25.
The result for TAVQ reads at most 0.25; that for LHIW, at most 0.25; that for WPHW, at most 0.25.
The result for FTHP reads at most 0.25; that for NDRK, at most 0.25; that for SHQM, 0.951.
With ETDF the figure was at most 0.25; with EYQW, at most 0.25; with VPLY, at most 0.25.
With NADL, the enrichment ratio is at most 0.25.
Take HKDM: the enrichment ratio is at most 0.25.
The result for RQHM reads at most 0.25.
With CATL the figure was at most 0.25.
Consider YAAY, for which the enrichment ratio is at most 0.25.
The result for RFAF reads at most 0.25; that for PEHS, at most 0.25; that for VLWW, at most 0.25.
The result for MGLH reads 3.88.
With NPHY the figure was at most 0.25; with NQEA, at most 0.25; with TQYG, 3.81.
With FNWC, the enrichment ratio is at most 0.25.
On to FHFY, for which the enrichment ratio was at most 0.25.
The result for PHKT reads at most 0.25; that for VQPM, at most 0.25; that for EHEI, at most 0.25.
The result for DMVV reads at most 0.25.
With RMAK the figure was at most 0.25; with DFPG, at most 0.25; with DEPI, at most 0.25.
Take RFQP: the enrichment ratio is at most 0.25.
The result for HDFY reads at most 0.25; that for FCYC, at most 0.25.
The result for MTFE reads at most 0.25; that for QQLL, at most 0.25.
With FCIG the figure was at most 0.25; with DQKM, at most 0.25.
Regarding FPEE, the enrichment ratio was at most 0.25.
The result for MEPV reads at most 0.25; that for SVIL, at most 0.25; that for LGGM, at most 0.25.
Take VFGI: the enrichment ratio is at most 0.25.
With GVHW, the enrichment ratio is at most 0.25.
For the variant MYHV, the enrichment ratio was 0.292.
With SFYS the figure was at most 0.25; with INIK, at most 0.25; with DGFI, at most 0.25.
The result for MHFC reads at most 0.25; that for LHQS, at most 0.25; that for VNVE, at most 0.25.
As for MPFN, the enrichment ratio was at most 0.25.
For EFMR, the enrichment ratio was at most 0.25.
With RVYV the figure was at most 0.25.
The result for DCHF reads at most 0.25; that for GQSP, at most 0.25.
The result for RRWI reads at most 0.25; that for AANS, at most 0.25.
As to VCLC, the enrichment ratio is 2.94.
The result for AKPK reads at most 0.25; that for PQGH, at most 0.25.
The result for LWHK reads at most 0.25.
The result for HMKM reads at most 0.25.
In the case of PCNK, the enrichment ratio was at most 0.25.
The result for RNWP reads at most 0.25.
With VPDP the figure was at most 0.25; with GAAI, at most 0.25.
With GPPN the figure was at most 0.25.
As for DWHQ, the enrichment ratio is at most 0.25.
The result for ARSQ reads at most 0.25.
In the case of PRMH, the enrichment ratio is at most 0.25.
With DQFQ the figure was at most 0.25.
Turning to GKRH, the enrichment ratio was at most 0.25.
With LPMG the figure was at most 0.25; with LSFR, at most 0.25; with NQDY, at most 0.25.
Regarding TNHE, the enrichment ratio is at most 0.25.
With MGCC the figure was at most 0.25.
With DHID the figure was at most 0.25; with YPTE, at most 0.25.
The result for SIEW reads at most 0.25; that for VCFE, at most 0.25; that for QPSA, at most 0.25.
In the case of GRVD, the enrichment ratio is at most 0.25.
With SHVN the figure was at most 0.25; with IYIR, at most 0.25; with QEKP, at most 0.25.
With GQDH the figure was at most 0.25.
With IEME the figure was at most 0.25; with LKEL, at most 0.25.
As to DGEF, the enrichment ratio is at most 0.25.
In the case of EPRD, the enrichment ratio was at most 0.25.
On to VVGF, for which the enrichment ratio is at most 0.25.
The result for SLNA reads at most 0.25; that for WCKI, at most 0.25; that for NCDA, at most 0.25.
The result for PYHS reads at most 0.25; that for SPEH, at most 0.25.
Regarding GISW, the enrichment ratio amounted to 1.18.
The result for KRSV reads at most 0.25; that for SEQF, at most 0.25.
The result for VKPS reads at most 0.25; that for RMFY, at most 0.25.
With YHQM the figure was at most 0.25; with IKIV, at most 0.25; with GKPC, at most 0.25.
Take VTPW: the enrichment ratio was at most 0.25.
Consider KINL, for which the enrichment ratio is at most 0.25.
Turning to QQAQ, the enrichment ratio is at most 0.25.
The result for SMEY reads at most 0.25.
With QLTK the figure was at most 0.25; with QVVP, at most 0.25.
The result for YLTQ reads at most 0.25; that for YCDC, at most 0.25; that for RWCM, at most 0.25.
Take TSRG: the enrichment ratio was 0.388.
PYSH: the enrichment ratio is at most 0.25.
MGER: the enrichment ratio was at most 0.25.
The result for GIGT reads at most 0.25; that for NTWW, at most 0.25.
With HFCS the figure was at most 0.25.
The result for KVCY reads at most 0.25; that for MHQQ, at most 0.25; that for YKNC, at most 0.25.
In the case of AIAA, the enrichment ratio was determined as 9.24.
With TMNG the figure was 10.4.
The result for ILTT reads at most 0.25; that for CIQH, at most 0.25.
On to GKMC, for which the enrichment ratio was at most 0.25.
The result for AYPK reads at most 0.25; that for EEGH, at most 0.25.
The result for SPQM reads at most 0.25; that for YMMT, at most 0.25.
